In all, about 340,000 compounds went through this assay and about 170 (0.05%) were called active. Not shown: some 26% with an inconclusive outcome. Calls come from the whole dose curve; as a rule, active = well fitted inhibition curve with a large enough effect in the signal ratio, with a control signal flat (not every such curve was filed as active); inconclusive = small, poorly fitted or top-dose-only effect, or effect the other way, or a change in a side signal; inactive = flat fitted curve, though single readings scatter; the % refers to the signal ratio. This is a selection; strong and weak results do not stand in their true shares.
Assay: qHTS Assay to Find Inhibitors of Chronic Active B-Cell Receptor Signaling;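 for activity change, negative = inhibition: plate controls were basal doxycycline-induced cells for no effect and cells given 10 µM MG132 for full effect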
Settings: ABC-DLBCL IkBa-CBG/CBR reporter, luminescence ratio (green luciferase fused to IkBa over red control in TMD8 lymphoma cells), 4 h; series mostly up to 46.1 µM; activity change, negative = inhibition: at the top concentration
In short: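 TMD8 ABC-DLBCL cells carrying doxycycline-inducible green luciferase fused to IkappaBalpha plus unfused red luciferase were exposed to compounds (up to 46 uM) for 4 hrs at 37C. Activity came from the overlap-corrected green/red luminescence ratio.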
Potency is the fitted concentration of half-maximal effect.

SMILES	activity change, negative = inhibition	Potency
CC1(C)OC1COc1c2ccoc2cc2oc(=O)ccc12 (configuration not stated)	inactive: 0.385%	–
CCOC(=O)[C@@H]1[C@H]2COc3ccc(Br)cc3[C@@H]2N2C(=O)N(c3ccc(Br)cc3)C(=O)[C@@]12C	inactive: 0.286%	–
COc1ccccc1N1CCN(c2ccnc3cc(Cl)ccc23)CC1	–	active: 20 µM
C/C=C/C(=O)N(CC)c1ccccc1C	inactive: 0.909%	–
C=CC[C@H](CC(=O)NCCO)C(=O)N[C@@H](COC(=O)[C@H](CC=C)CC(=O)OC(C)(C)C)Cc1c[nH]c2ccccc12	inactive: 0.786%	–
CC(C)(C)NC(=O)/C(=C/c1ccccc1F)NC(=O)c1ccc([N+](=O)[O-])cc1	inactive: 10.9%	–
Cc1ccc(S(=O)(=O)N2C[C@@H]3[C@H]4CC[C@H](C4)[C@@H]3[C@@H](C)[C@H]2c2ccn(Cc3ccccc3)c2)cc1	inactive: 3.52%	–
C=CC[C@@H](CC(=O)N(CCO)Cc1ccccc1)C(=O)NC[C@@H](OC(=O)[C@@H](CC=C)CC(=O)OC(C)(C)C)c1ccccc1	inactive: 1.07%	–
C[C@@H](NC(=O)c1ncn(C)c1C(=O)N[C@H](C)c1ccccc1)c1ccccc1	inactive: 0.532%	–
COc1ccc(OC)c(Nc2c3c(nc4ccccc24)CCC3)c1	–	active: 15.8 µM
C=CCC[C@H](Cc1ccc(F)cc1)C(=O)OC[C@@H](Cc1c[nH]c2ccccc12)NC(=O)[C@@H](CC=C)CC(=O)N[C@@H](CO)Cc1ccccc1	inactive: 3.83%	–
C=CC[C@H](CC(=O)NCCO)C(=O)N[C@@H](C)COC(=O)[C@H](CC=C)CC(=O)OC(C)(C)C	inactive: 3.81%	–
Cc1ccc(C)c(OCCn2cc(/C=C(/C#N)C(=O)NCC3CCCO3)c3ccccc32)c1 (configuration not stated)	inactive: 3.28%	–
C[C@H](NC(=O)c1ccccc1Cl)C(=O)NCc1cccs1	inactive: -2.44%	–
CCCCNC(=O)CSc1nc2cc3c(cc2c(=O)n1CCCC(=O)NCCc1ccc(OC)c(OC)c1)OCO3	inactive: -13.7%	–
C#Cc1ccc([C@@H]2C=C(C(=O)NC3CC3)O[C@H](OCC)[C@H]2CCCO)cc1	inactive: -3.56%	–
CS(=O)(=O)c1ccc(S(=O)CC(=O)Oc2ccc(Cl)cc2)c([N+](=O)[O-])c1 (configuration not stated)	–	active: 17.8 µM
Cc1cccc(/C=C/c2onc(C)c2S(=O)(=O)N2CCC(C(=O)N3CCCCC3)CC2)c1	inactive: -3.95%	–
C=CC[C@@H](CC(=O)N[C@@H](CO)Cc1ccccc1)C(=O)N[C@H](COC(=O)[C@H](CC=C)CC(=O)OC(C)(C)C)Cc1c[nH]c2ccccc12	inactive: -8.44%	–
C[C@]12C(=O)N(c3ccc(Br)cc3)C(=O)N1[C@H]1c3ccccc3OC[C@@H]1[C@H]2c1ccccc1	inactive: 2.94%	–
CCCCNC(=O)CSc1nc2n[nH]c(C)c2c(=N)n1-c1cccc(Cl)c1C	inactive: -15.5%	–

SMILES	activity change, negative = inhibition	Potency
NC(=O)C1CCN(c2nc(-c3ccccc3F)cs2)CC1	inactive: 0.0726%	–
COc1ccc(S(=O)(=O)N(C)C[C@H]2Oc3ccc(NC(=O)Nc4c(C)noc4C)cc3C(=O)N([C@H](C)CO)C[C@@H]2C)cc1	inactive: -0.57%	–
COc1cc(/C=C2/SC(=S)N(CC(=O)Nc3cccnc3)C2=O)cc(OC)c1OC	inactive: 6.55%	–
O=C(C1=C[C@@H](C2CCCCC2)C[C@@H](OCCCCO)O1)N1CCOCC1	inactive: -1.88%	–
O=C1N[C@@H](c2ccccc2)COC(=O)[C@@H](Cc2ccc(F)cc2)CC/C=C/C[C@H]1CC(=O)N(CCO)Cc1ccccc1	inactive: 1.13%	–
O=C1N[C@@H](Cc2ccccc2)COC(=O)[C@H](Cc2ccc(F)cc2)CC/C=C/C[C@H]1CC(=O)N(CCO)Cc1ccccc1	inactive: 1.58%	–
O=C(COc1ccc2c(-c3ccccc3)cc(=O)oc2c1)NC(Cc1c[nH]c2ccccc12)C(=O)O (configuration not stated)	inactive: 0.673%	–
[2H]C(CCOS(N)(=O)=O)c1ccccc1 (configuration not stated)	inactive: 24.1%	–
COc1ccc(-c2noc(CSc3nc(N)c(-c4ccccc4)c(=O)[nH]3)n2)cc1OC	–	active: 20.6 µM
CCCC(=O)OCCNc1cc(Sc2nccn2C)c2nonc2c1[N+](=O)[O-]	–	active: 2.91 µM
Cc1csc(CNc2ncnc3ccc(-c4ccccc4Cl)cc23)c1	inactive: -4.5%	–
C[C@H]1COC(=O)[C@H](CC(=O)OC(C)(C)C)C/C=C\C[C@@H](CC(=O)NCCO)C(=O)N1	inactive: 1.98%	–
OCC[C@@H]1C[C@H](O)[C@@H](O)[C@]2(OCc3ccccc32)O1	inactive: -9.56%	–
C[C@@H]1CN([C@@H](C)CO)C(=O)c2cccc(NC(=O)Nc3ccc4c(c3)OCO4)c2O[C@H]1CN(C)S(=O)(=O)c1cn(C)cn1	inactive: -0.29%	–
COc1ccc([C@@]2(C(C)C)ON(c3ccccc3C(F)(F)F)C2=O)cc1	inactive: -4.84%	–
C=CC[C@@H](CC(=O)OC(C)(C)C)C(=O)OC[C@H]1CCCN1C(=O)[C@@H](CC=C)CC(=O)NCCO	inactive: 2.38%	–
CC(C)[C@H](NC(=O)N1CCn2c1nc1ccccc12)C(=O)N[C@@H](Cc1ccccc1)C(=O)O	inactive: -1.53%	–
O=c1c2ccccc2ncn1-c1ccc(Cl)cc1	inactive: -21.5%	–
COC(=O)[C@@H]1[C@H]2C[C@H]3c4[nH]c5ccccc5c4CCN3C[C@@H]2CC[C@@H]1O	inactive: -16.3%	–
CC(/C=N/NC(=O)c1ccncc1)=C\c1ccco1	inactive: -26.3%	–
C[n+]1cc[nH]c1SCC(=O)c1ccc(Cl)cc1	inactive: -4.44%	–

Reference: PubChem BioAssay AID493014 (National Center for Advancing Translational Sciences (NCATS), 2011)
